The values below come from US20190330310A1 (VIB VZW, published 2019).

The target of one experiment is T1, HA-Tyk2(C)-RTp66 (HIV-1).
T1 construct: also called pSVSport-HA-Tyk2(C)-RTp66; RTp66 kinase fusion construct
As to the kind of experiment: luciferase reporter interaction assay in HEK293-T cells.

A further experiment has as its target T2, HA-Tyk2(C)-SERT (human).
T2 construct: Fusion protein expressed in transfected HEK293-T cells; also called pSVSport-HA-Tyk2(C)-SERT; SERT kinase fusion construct
The description is as above.

B1: flag tag-gp130-VAMP2 (other)
chain: MDYKDDDDKISTVVHSGYRHQVPSVQVFSRSESTQPLLDSEERPEDLQLVDHVDGGDGILPRQQYFKQNCSQHESSPDISHFERSKQVSSVNEEDFVRLKQQISDHISQSCGSGQMKMFQEVSAADAFGPGTEGQVERFETVGMEAATDEGMPKSYLPQTVRQGGYMPQGGSELSTSLYKKVG[letters of about 120 residues not shown]YPTFLYKVV
notes: also called pMG1-VAMP2; pMG2-VAMP2
Regarding B1, the binding result in the experiment with HA-Tyk2(C)-RTp66 was “no binding”; with HA-Tyk2(C)-SERT it was “binds”.
